Data: the supplement of paper PMC10369915
The other results are listed elsewhere or left out. No stated cut-off is given here; in the data, active = 3.2 or more and inactive = the rest. The signal is at background level for most entries.

Target: SHP2 C-SH2 domain E139D
Assay: enrichment score (SH2-bound / input frequency) (ratio); bacterial display of known human phosphotyrosine sites (pTyr-Var adds point mutants) read by sequencing; higher = stronger binding; tyrosines were phosphorylated by kinases first
Details: peptide library: pTyr-Var
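Further: displayed peptides selected on beads carrying the immobilized SH2 domain, with library peptides lacking any tyrosine serving as negative controls.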

Enrichment score, inactive:
GYITSYREEEQ [TTN_Y19764] 0.833
KINKMYSDHAM [TTN_Y20328_R20331H] 0.649
PGVNFYFRVSA [TTN_Y28166_YF] 1.07
TKGNEYVFRVA [TTN_Y30829_E30825K] 0.601
RGKEPYTKKAL [TTC21B_Y160] 0.568
ANVKWYRSGRE [TTN_Y13783_N13785S] 0.239
AEVIWYKGDEV [TTN_Y13423_E13428V] 0.905
ESSKAYERALS [TTC37_Y1074] 0.555
GYIISYREEEQ [TTN_Y19764_T19762I] 0.879
PGVNYYFRVSA [TTN_Y28166] 1.12
TFLRTYTDTMQ [TSPAN7_Y124_A127T] 0.841
DLRGIYQKLVI [TTN_Y21998] 1.44
LAVNPYGPPDL [TTN_Y22579_P22584L] 0.786
PECEWYKNGVK [TTN_Y2112] 1.31
TENAGYYFRVS [TTN_Y31721] 0.729
AKIDGYITSYR [TTN_Y19760] 0.943
ANNEFYFRVCA [TTN_Y18998_YF] 0.625
TEGNEYVFRVA [TTN_Y30829] 0.64
VHVEVYDRPSP [TTN_Y16422] 0.806

Target: SHP2 C-SH2 domain wild-type
Assay: as above
Details: peptide library: pTyr-Var

Enrichment score, inactive:
GYITSYREEEQ [TTN_Y19764] 0.783
KINKMYSDHAM [TTN_Y20328_R20331H] 0.639
PGVNFYFRVSA [TTN_Y28166_YF] 2
TKGNEYVFRVA [TTN_Y30829_E30825K] 0.977
RGKEPYTKKAL [TTC21B_Y160] 0.61
ANVKWYRSGRE [TTN_Y13783_N13785S] 0.25
AEVIWYKGDEV [TTN_Y13423_E13428V] 1.24
ESSKAYERALS [TTC37_Y1074] 0.684
GYIISYREEEQ [TTN_Y19764_T19762I] 0.62
PGVNYYFRVSA [TTN_Y28166] 1.72
TFLRTYTDTMQ [TSPAN7_Y124_A127T] 0.728
DLRGIYQKLVI [TTN_Y21998] 1.86
LAVNPYGPPDL [TTN_Y22579_P22584L] 0.761
PECEWYKNGVK [TTN_Y2112] 1.15
TENAGYYFRVS [TTN_Y31721] 0.794
AKIDGYITSYR [TTN_Y19760] 0.883
ANNEFYFRVCA [TTN_Y18998_YF] 0.864
TEGNEYVFRVA [TTN_Y30829] 0.509
VHVEVYDRPSP [TTN_Y16422] 0.874

Target: SHP2 N-SH2 domain L43F
Assay: as above
Details: peptide library: pTyr-Var

Enrichment score, inactive:
GYITSYREEEQ [TTN_Y19764] 0.837
KINKMYSDHAM [TTN_Y20328_R20331H] 0.451
PGVNFYFRVSA [TTN_Y28166_YF] 1.27
TKGNEYVFRVA [TTN_Y30829_E30825K] 0.624
RGKEPYTKKAL [TTC21B_Y160] 0.588
ANVKWYRSGRE [TTN_Y13783_N13785S] 0.21
AEVIWYKGDEV [TTN_Y13423_E13428V] 1.08
ESSKAYERALS [TTC37_Y1074] 0.537
GYIISYREEEQ [TTN_Y19764_T19762I] 0.543
PGVNYYFRVSA [TTN_Y28166] 0.907
TFLRTYTDTMQ [TSPAN7_Y124_A127T] 2.78
DLRGIYQKLVI [TTN_Y21998] 1.64
LAVNPYGPPDL [TTN_Y22579_P22584L] 1.08
PECEWYKNGVK [TTN_Y2112] 1.51
TENAGYYFRVS [TTN_Y31721] 0.391
AKIDGYITSYR [TTN_Y19760] 1.03
ANNEFYFRVCA [TTN_Y18998_YF] 0.692
TEGNEYVFRVA [TTN_Y30829] 0.511
VHVEVYDRPSP [TTN_Y16422] 0.742

Target: SHP2 N-SH2 domain T42A
Assay: as above
Details: peptide library: pTyr-Var

Enrichment score, inactive:
GYITSYREEEQ [TTN_Y19764] 0.633
KINKMYSDHAM [TTN_Y20328_R20331H] 0.816
PGVNFYFRVSA [TTN_Y28166_YF] 0.782
TKGNEYVFRVA [TTN_Y30829_E30825K] 0.62
RGKEPYTKKAL [TTC21B_Y160] 0.494
ANVKWYRSGRE [TTN_Y13783_N13785S] 0.228
AEVIWYKGDEV [TTN_Y13423_E13428V] 1.19
ESSKAYERALS [TTC37_Y1074] 0.46
GYIISYREEEQ [TTN_Y19764_T19762I] 0.707
PGVNYYFRVSA [TTN_Y28166] 1.16
TFLRTYTDTMQ [TSPAN7_Y124_A127T] 1.03
DLRGIYQKLVI [TTN_Y21998] 1.78
LAVNPYGPPDL [TTN_Y22579_P22584L] 0.758
PECEWYKNGVK [TTN_Y2112] 1.05
TENAGYYFRVS [TTN_Y31721] 0.477
AKIDGYITSYR [TTN_Y19760] 0.949
ANNEFYFRVCA [TTN_Y18998_YF] 0.573
TEGNEYVFRVA [TTN_Y30829] 0.581
VHVEVYDRPSP [TTN_Y16422] 0.78

Target: SHP2 N-SH2 domain T52S
Assay: as above
Details: peptide library: pTyr-Var

Enrichment score, inactive:
GYITSYREEEQ [TTN_Y19764] 0.831
KINKMYSDHAM [TTN_Y20328_R20331H] 0.566
PGVNFYFRVSA [TTN_Y28166_YF] 0.766
TKGNEYVFRVA [TTN_Y30829_E30825K] 0.766
RGKEPYTKKAL [TTC21B_Y160] 0.577
ANVKWYRSGRE [TTN_Y13783_N13785S] 0.232
AEVIWYKGDEV [TTN_Y13423_E13428V] 0.889
ESSKAYERALS [TTC37_Y1074] 0.576
GYIISYREEEQ [TTN_Y19764_T19762I] 0.704
PGVNYYFRVSA [TTN_Y28166] 0.96
TFLRTYTDTMQ [TSPAN7_Y124_A127T] 2.79
DLRGIYQKLVI [TTN_Y21998] 1.52
LAVNPYGPPDL [TTN_Y22579_P22584L] 0.786
PECEWYKNGVK [TTN_Y2112] 0.708
TENAGYYFRVS [TTN_Y31721] 0.518
AKIDGYITSYR [TTN_Y19760] 0.837
ANNEFYFRVCA [TTN_Y18998_YF] 0.556
TEGNEYVFRVA [TTN_Y30829] 0.525
VHVEVYDRPSP [TTN_Y16422] 0.871

Target: SHP2 N-SH2 domain wild-type
Assay: as above
Details: peptide library: pTyr-Var

Enrichment score, inactive:
GYITSYREEEQ [TTN_Y19764] 0.847
KINKMYSDHAM [TTN_Y20328_R20331H] 0.891
PGVNFYFRVSA [TTN_Y28166_YF] 1.9
TKGNEYVFRVA [TTN_Y30829_E30825K] 0.675
RGKEPYTKKAL [TTC21B_Y160] 0.694
ANVKWYRSGRE [TTN_Y13783_N13785S] 0.194
AEVIWYKGDEV [TTN_Y13423_E13428V] 1.07
ESSKAYERALS [TTC37_Y1074] 0.552
GYIISYREEEQ [TTN_Y19764_T19762I] 0.721
PGVNYYFRVSA [TTN_Y28166] 1.1
TFLRTYTDTMQ [TSPAN7_Y124_A127T] 0.908
DLRGIYQKLVI [TTN_Y21998] 1.2
LAVNPYGPPDL [TTN_Y22579_P22584L] 1.33
PECEWYKNGVK [TTN_Y2112] 1.33
TENAGYYFRVS [TTN_Y31721] 0.37
AKIDGYITSYR [TTN_Y19760] 1.08
ANNEFYFRVCA [TTN_Y18998_YF] 0.964
TEGNEYVFRVA [TTN_Y30829] 0.788
VHVEVYDRPSP [TTN_Y16422] 1
